The record followed here is PubChem BioAssay AID485344 (National Center for Advancing Translational Sciences (NCATS), 2010).

Values joined by “and” are separate entries in the source; they are usually repeats but may differ in a detail not shown here. Equal values may be shown once. Among all 340,000 compounds or so, about 6,900 (2%) were called active. Rule as the data show it: active = inhibition above about 30%; inactive = below that, where a call was filed. Only a part is listed here, and it is no random draw. Entries without a call were filed so in the source.

The assay concerns the target D(2) dopamine receptor (Homo sapiens) (UniProt P14416). Put plainly: HTS Assay for Allosteric Antagonists of the Human D2 Dopamine Receptor: Primary Screen for Antagonists. Also: 0% is about no effect. The following applies: HEK293 TREx D2 cells, calcium flux, dopamine EC80; at 10 µM; stronger effect = higher value. In a few lines: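 Inhibition of EC80 dopamine-driven calcium flux, recorded kinetically, defines activity here; cells are a tetracycline-induced HEK293 T-REx line expressing force-coupled D2.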
UniProt P14416, sequence (P14416 whole entry, looked up): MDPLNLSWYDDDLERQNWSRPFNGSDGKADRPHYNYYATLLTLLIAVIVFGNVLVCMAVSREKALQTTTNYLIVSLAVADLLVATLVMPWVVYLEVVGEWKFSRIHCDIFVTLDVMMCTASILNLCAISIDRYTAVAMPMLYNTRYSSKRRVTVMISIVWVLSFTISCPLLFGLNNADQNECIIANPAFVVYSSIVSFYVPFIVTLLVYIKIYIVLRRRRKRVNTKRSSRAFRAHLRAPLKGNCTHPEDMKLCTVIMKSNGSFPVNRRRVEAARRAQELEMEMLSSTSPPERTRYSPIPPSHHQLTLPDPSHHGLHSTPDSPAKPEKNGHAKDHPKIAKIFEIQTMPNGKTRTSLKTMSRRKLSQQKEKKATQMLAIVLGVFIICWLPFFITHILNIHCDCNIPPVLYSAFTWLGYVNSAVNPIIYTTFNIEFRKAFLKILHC
For orientation: Calcium flux is commonly read through the fluorescence of an indicator in the cells.
On to `Cc1ccnc(NS(=O)(=O)c2cc(-c3cc(C)no3)ccc2C)c1`, for which the inhibition worked out at 2.46%.
As for `CCc1ccc(N(CC)C(=O)Cn2c(=O)oc3ccccc32)cc1`, the inhibition was 3.9%.
As to `COc1ccc(NC(=O)C2CCCN(S(=O)(=O)c3ccc4c(c3)CCCC(=O)N4)C2)c(OC)c1` (stereo not given), the inhibition came to 1.51%.
Turning to `Cc1nn(S(=O)(=O)c2ccc(F)cc2)c(C)c1S(=O)(=O)N1CCC(C)CC1`, the inhibition amounted to 3.74%.
With `CCC(NC(=O)C1CCC1)c1ccc(C)cc1` (stereo not given), the inhibition is active: 36.7%.
`COc1cccc2cc(C(=O)NCCc3c(C)[nH]c4ccc(Br)cc34)c(=O)oc12`: the inhibition came to 11.4%.
In the case of `Cc1ccccc1NC(=O)c1c(NC(=O)C(F)(F)F)sc2c1CCCCC2`, the inhibition is -1.8%.
Regarding `Cc1cn(S(=O)(=O)c2ccc(F)c(Cl)c2)cn1`, the inhibition is -11.4%.
Turning to `COc1cc(NC(=O)c2nn(-c3ccc(F)cc3)c(=O)n(C)c2=O)cc(OC)c1OC`, the inhibition turned out to be 19.3%.
In the case of `CCn1c(C(=O)N2CCC(C(=O)NCCCOC)CC2)cc2sccc21`, the inhibition is 8.87%.
For `Cc1cc(C)c(/C=C/c2onc(C)c2S(=O)(=O)N2CCC(C(=O)Nc3ccc(Cl)cc3C)CC2)c(C)c1`, the inhibition is -17.6%.
`CC(C(O)c1ccc(O)cc1)N1CCC(Cc2ccccc2)CC1` (stereo not given): the inhibition is active: 48.5% and active: 77.2%.
Next, `O=C(COCc1cc(-c2cccs2)on1)NCc1cccc(Cl)c1`: -15.1%; `Cc1ccccc1NC(=O)CSc1nc2ccccc2c2nc(CCn3c(C)nc4ccccc43)nn12`: 10.1%.
`COc1ccc(NCc2cc3ccc(OC)cc3n(CC(=O)Nc3cccc(OC)c3)c2=O)cc1`: the inhibition stood at 8.25%.
Regarding `CCOc1ccc(-c2nc(CNC(=O)Nc3ccccc3)c(C)o2)cc1`, the inhibition was determined as 10.1%.
For `COc1ccccc1N1CCN(C(=O)c2cc3c(=O)oc4ccc(C)cc4c3s2)CC1`, the inhibition was found to be 8.33%.
`Cc1ccc(CNC(=O)c2cn(C)c3ccc(S(=O)(=O)N4CCOCC4)cc3c2=O)cc1`: the inhibition was determined as 0.364%.
Take `CCC1CCc2nc3sc(C(=O)Nc4ccc(F)c(F)c4)c(N)c3cc2C1` (stereo not given): the inhibition was -0.666%.
Regarding `CCOC(=O)c1c(C)c(C(=O)NCc2ccc(Cl)cc2)c(C)n1CC`, the inhibition is 0.925%.
In the case of `CC(C)c1ccccc1Oc1c(C(F)(F)F)oc2c(CN3CCN(C)CC3)c(O)ccc2c1=O` it was -6.82%; in that of `Cn1c(-c2ccc(S(=O)(=O)N3CCCC3)cc2)csc1=Nc1ccc(Cl)c(Cl)c1`, 9.55%; in that of `CCOc1ccccc1Nc1sc(C(=O)c2ccc(Cl)cc2)c(N)c1C(=O)NCCc1ccccc1`, 10.9%.
Take `CCCc1nnc(NC(=O)Cc2coc3ccc(C)cc23)s1`: the inhibition is -0.986%.
With `O=C(Cn1c(=O)n(CCc2ccccc2)c(=O)c2c3c(sc21)CCCC3)Nc1ccc(F)c(F)c1`, the inhibition was -18.5%.
With `CCn1c(SCC(=O)Nc2nccs2)nnc1-c1ccco1`, the inhibition was active: 83%.
Take `CCN(CC)c1cc2c(cc1F)c(=O)c(S(=O)(=O)c1ccc(C)cc1)cn2Cc1ccc(F)cc1`: the inhibition is -6.01%.
For the molecule `O=S(=O)(Nc1cccc(-c2ccc(N3CCOCC3)nn2)c1)c1ccccc1C(F)(F)F`, the inhibition was -6.04%.
Consider `CCOc1ccc(NC(=O)[C@H](Cc2ccccc2)N2Cc3ccccc3C2=O)cc1`, for which the inhibition worked out at 3.19%.
Next, `O=C(Cn1ncc2ccsc2c1=O)N1CCN(c2ccccc2)CC1`: 3.07%; `O=C(Nc1nnc(-c2ccccc2F)s1)C1CCCO1` (stereo not given): active: 39.7%.
In the case of `O=C(NCCc1ccc(Cl)cc1)c1nc(-c2cccc(F)c2)n2c1CCCCC2` it was 23.8%.
As for `CCCN1CCN(c2ncnc3sc(C(=O)Nc4cccc(Cl)c4C)c(C)c23)CC1`, the inhibition is 7.33%.
With `Cc1cc2n(n1)CCC(=O)N2Cc1ccc(C(=O)Nc2ccc(Br)c(C)c2)cc1`, the inhibition turned out to be 0.674%.
Next, `COC(=O)c1c(NC(=O)COc2c(C)ccc(C)c2C)sc2c1CCC(C)C2` (stereo not given): -15.3%.
Take `Cc1ccc(-n2nc(C(=O)Nc3cccc(C#N)c3)c3c4ccccc4n(C)c3c2=O)cc1`: the inhibition is 3.06%.
In the case of `CC1=C(C(=O)Nc2cccnc2)C(c2ccc(Cl)cc2)n2nc(SCc3ccccc3)nc2N1` (stereo not given), the inhibition was 2.35%.
For the molecule `Cc1ccc(NC(=O)CN2C(=O)c3ccccc3Sc3ccc(C(=O)N4CCCC4)cc32)cc1`, the inhibition is -9.01%.
Consider `CCN(CC)CCNC(=O)c1[nH]c2ccccc2c1Sc1ccc(Cl)cc1`, for which the inhibition worked out at 27%.
In the case of `O=C(Nc1cc(Cl)ccc1Cl)c1cc(S(=O)(=O)N2CCCc3ccccc32)ccc1F`, the inhibition stood at 0.686%.
In the case of `COc1ccc2c(c1)CCC/C2=N\NC(=O)c1ccoc1C` it was active: 37.7%; in that of `CN(C(=O)c1ccc2c(c1)N(Cc1ccccc1F)C(=O)c1ccccc1S2(=O)=O)C1CCCCC1`, 12.4%; in that of `COc1ccc(NC(=O)C(NC(=O)/C=C\c2ccc3c(c2)OCO3)c2ccc(OC)cc2)cc1` (stereo not given), -1.44%.
On to `O=C(CC1N=C2c3ccccc3N=C(SCc3ccccc3Cl)N2C1=O)NCc1cccs1` (stereo not given), for which the inhibition was -4.85%.
In the case of `COc1ccc(NC(=O)C(=O)NCC(c2cccnc2)N2CCc3ccccc3C2)cc1` (stereo not given), the inhibition was determined as 0.494%.
For `CCOc1ccc(NC(=O)Cc2ccc(-n3c(C)nc4cccnc43)cc2)cc1`, the inhibition was 4.57%.
Regarding `CCOC(=O)C1CCCN(Cc2cn3c(-c4ccc(Br)cc4)nnc3s2)C1` (stereo not given), the inhibition was -7.41%.
In the case of `CC(=O)N1CCC(N(Cc2ccco2)C(=O)Nc2ccc(Br)cc2F)CC1` it was 5.78%.
On to `Cc1cccc(OCC(=O)N(Cc2ccc(C(C)C)cc2)Cc2ccco2)c1C`, for which the inhibition is -18%.
For the molecule `O=C(Nc1nnc(S(=O)(=O)N2CCCC2)s1)c1ccccc1F`, the inhibition was -14.5%.
As to `CCN(C(=O)c1nn(-c2ccc(C)cc2)c(=O)c2c1c1ccccc1n2C)c1ccc(F)cc1`, the inhibition was -16.6%.
As for `CC(C)COc1ccc(-c2nonc2NC(=O)c2ccc(F)cc2)cc1`, the inhibition is -6.4%.
As to `Cc1ccc(N2CC(NC(=O)c3ccco3)CC2=O)cc1C` (stereo not given), the inhibition is -0.526%.
For `O=C(Cn1ncc2c([nH]c3ccccc32)c1=O)NCc1cccc(Cl)c1`, the inhibition is 7.09%.
Turning to `CCOC(=O)c1cnc2c(C)cc(Cl)cc2c1NCCc1ccc(OC)c(OC)c1`, the inhibition is -5.35%.
As to `CCOC(=O)c1cc(-c2ccc(F)cc2)n(CCC(=O)NCc2ccccc2OC)c1C`, the inhibition came out at 7.94%.
Next, `COc1ccc(NC(=O)C(C)n2c(C)c3cnn(-c4ccccc4)c(=O)c3c2C)cc1Cl` (stereo not given): 2.86%; `COc1ccc(-c2cc(C(=O)N3CCN(c4ccc(F)cc4)CC3)no2)cc1OC`: -1.73%.
On to `COC(=O)c1ccccc1NC(=O)CCc1c(C)nc2c(c(C)nn2-c2ccccc2)c1C`, for which the inhibition is -0.107%.
As for `COc1cccc(CNC(=O)CCCn2nc(C)n3c(cc4sccc43)c2=O)c1`, the inhibition stood at 1.26%.
Consider `COc1ccc(C2CC(=O)c3c([nH]c(C(=O)OC4CCCCCC4)c3C)C2)cc1OC` (stereo not given), for which the inhibition is -1.01%.
Regarding `COc1ccc(-n2nnc(-c3nc(-c4ccccc4C)no3)c2N)cc1Cl`, the inhibition was 1.83%.
Turning to `CC1CCCCN1Cc1c(O)ccc2c(=O)c(-c3ccccc3)coc12` (stereo not given), the inhibition came out at 3.25%.
Turning to `Cc1ccc(CNC(=O)c2sc3nc(-c4ccc(F)cc4)ccc3c2N)cc1`, the inhibition is -12.3%.
In the case of `COc1cccc(CNS(=O)(=O)c2ccc(N3CCCCS3(=O)=O)cc2)c1` it was 1.72%; in that of `CCOC(=O)C1=C(CN2CCCCC2)NC(=O)NC1c1ccc(C)cc1` (stereo not given), -0.617%.
Take `CCOc1ccc(C(CC(=O)Nc2cc(C)c(Cl)cc2OC)N2Cc3ccccc3C2=O)cc1OC` (stereo not given): the inhibition was -3.9%.
Next, `O=C(c1cccc(F)c1)N1CCC(c2c[nH]c3ccccc23)(c2c[nH]c3ccccc23)CC1`: -4.63%.
For the molecule `COc1ccc(C(=O)Nc2nnc(S(=O)(=O)N3CCC(C)CC3)s2)cc1OC`, the inhibition was -4.82%.
In the case of `O=C(NC1CCCC1)c1cc(-c2ccccc2)on1` it was active: 37.6%; in that of `CCN(C(=O)C1CCCN(c2ncnc3onc(-c4ccc(F)cc4)c23)C1)c1ccccc1` (stereo not given), 12.7%; in that of `O=C(NCC1CCCO1)c1c[nH]c2ccc(S(=O)(=O)Nc3ccc(F)cc3F)cc2c1=O` (stereo not given), 1.82%.
For `CC(C)(C)c1ccc(-c2nc(S(=O)(=O)c3ccccc3)c(N3CCOCC3)o2)cc1`, the inhibition worked out at 9.99%.
Take `CCOc1ccc(NC(=O)NCCn2nnc3cc(S(=O)(=O)N(C)C)ccc32)cc1`: the inhibition is -7.56%.
Next, `CCc1cccc(NC(=O)Cn2c(=O)n(CCC(=O)NCC3CCCO3)c(=O)c3cc(OC)c(OC)cc32)c1` (stereo not given): 8.04%.
Consider `Cc1ccc(-c2nc3ncccc3o2)cc1NC(=O)c1ccccc1Br`, for which the inhibition is -5.76%.
Next, `Cc1ccc(CNC(=O)c2cc3c(s2)-c2ccc(Cl)cc2SC3)cc1`: 2.94%.
Turning to `CN(C)c1ccc(NC(=O)CN2CCN(CC(=O)Nc3ccc(Br)cc3)CC2)cc1`, the inhibition turned out to be 24.8%.
Consider `Cc1ccc(CSC2=Nc3ccccc3C3=NC(CC(=O)NCc4cccs4)C(=O)N23)cc1` (stereo not given), for which the inhibition is -10.3%.
Turning to `CCOc1ccc(NC(=O)Cn2c(=O)n(Cc3ccc(C(=O)NCc4ccc(C)cc4)cc3)c(=O)c3ccccc32)cc1`, the inhibition was -3.46%.
As for `COc1cccc(CNC(=O)CN2C(=O)COc3ccc(S(=O)(=O)N4CCCCCC4)cc32)c1`, the inhibition amounted to 6.6%.
In the case of `Cc1nc2ccn(Cc3ccccc3)c(=O)c2cc1C(=O)NCc1ccccc1F`, the inhibition was determined as 6.04%.
Turning to `COc1ccc(NC(=O)Nc2cccc(-c3cn4cccnc4n3)c2)cc1`, the inhibition was -11.3%.
`Cc1cccc([N+](=O)[O-])c1NC(=O)COC(=O)c1nc2nccc(C)n2n1`: the inhibition is active: 52.4%.
For the molecule `O=C(NCCc1ccc(Cl)cc1)c1ccc2c(c1)N(Cc1ccccc1F)C(=O)c1ccccc1S2(=O)=O`, the inhibition turned out to be 14.7%.
With `CC1CC(=O)N(CC(=O)Nc2ccc(F)cc2F)c2ccccc2S1` (stereo not given), the inhibition is 4.73%.
For `O=C(CCCn1ccc2cc(S(=O)(=O)N3CCCC3)ccc21)NCc1ccc(Cl)cc1`, the inhibition worked out at 5.71%.
On to `CCc1ccc(C2CC(=O)NC(NC(=O)c3ccc(C(C)(C)C)cc3)=N2)cc1` (stereo not given), for which the inhibition is -8.26%.
`Cc1c(-c2ccccc2)c(=O)oc2c(CN3CCCC3)c(O)ccc12`: the inhibition was -12.2%.
Regarding `CCOc1ccc(/C=C/c2nc(C#N)c(Nc3ccc(OCC)cc3)o2)cc1`, the inhibition was -2.64%.
Next, `Cn1c(=O)[nH]c(=O)c2c1nc(NCCO)n2CC(O)COc1ccccc1` (stereo not given): 17.2%; `CCOc1ccc(CCNC(=O)C2CCC(CNS(=O)(=O)c3ccc(Cl)cc3)CC2)cc1OCC` (stereo not given): -4.56%.
For the molecule `COc1cccc(-n2cc(C(=O)Nc3cc(C)c(Cl)cc3OC)c3ccccc3c2=O)c1`, the inhibition was 27.2%.
For `CCOc1ccc(CNC(=O)C2CCN(c3nn4c(=O)cc(C)nc4s3)CC2)cc1`, the inhibition was -4.25%.
For the molecule `CCOCCCNC(=O)c1cc2c(=O)[nH]c3ccccc3c2n1C`, the inhibition came out at 1.46%.

The inhibition is the change of the read-out against control, counted positive when it falls.
